# Measurements taken from publication PMC4336329 (PLoS ONE, 2015).
# Screen size: about 310,000 compounds; about 14,000 (4.5%) showed an effect of 50% or more. Effects have a minus sign here. Some of the results follow.
# Biological target: human ether-à-go-go-related gene (hERG) potassium channel (human, UniProt Q12809)
# Test: primary screen, population patch clamp on CHO cells stably expressing hERG
# 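Also: peak tail current of the secondary pulse compared with the same well before compound.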
# Sequence of human ether-à-go-go-related gene (hERG) potassium channel (Q12809 whole entry, looked up): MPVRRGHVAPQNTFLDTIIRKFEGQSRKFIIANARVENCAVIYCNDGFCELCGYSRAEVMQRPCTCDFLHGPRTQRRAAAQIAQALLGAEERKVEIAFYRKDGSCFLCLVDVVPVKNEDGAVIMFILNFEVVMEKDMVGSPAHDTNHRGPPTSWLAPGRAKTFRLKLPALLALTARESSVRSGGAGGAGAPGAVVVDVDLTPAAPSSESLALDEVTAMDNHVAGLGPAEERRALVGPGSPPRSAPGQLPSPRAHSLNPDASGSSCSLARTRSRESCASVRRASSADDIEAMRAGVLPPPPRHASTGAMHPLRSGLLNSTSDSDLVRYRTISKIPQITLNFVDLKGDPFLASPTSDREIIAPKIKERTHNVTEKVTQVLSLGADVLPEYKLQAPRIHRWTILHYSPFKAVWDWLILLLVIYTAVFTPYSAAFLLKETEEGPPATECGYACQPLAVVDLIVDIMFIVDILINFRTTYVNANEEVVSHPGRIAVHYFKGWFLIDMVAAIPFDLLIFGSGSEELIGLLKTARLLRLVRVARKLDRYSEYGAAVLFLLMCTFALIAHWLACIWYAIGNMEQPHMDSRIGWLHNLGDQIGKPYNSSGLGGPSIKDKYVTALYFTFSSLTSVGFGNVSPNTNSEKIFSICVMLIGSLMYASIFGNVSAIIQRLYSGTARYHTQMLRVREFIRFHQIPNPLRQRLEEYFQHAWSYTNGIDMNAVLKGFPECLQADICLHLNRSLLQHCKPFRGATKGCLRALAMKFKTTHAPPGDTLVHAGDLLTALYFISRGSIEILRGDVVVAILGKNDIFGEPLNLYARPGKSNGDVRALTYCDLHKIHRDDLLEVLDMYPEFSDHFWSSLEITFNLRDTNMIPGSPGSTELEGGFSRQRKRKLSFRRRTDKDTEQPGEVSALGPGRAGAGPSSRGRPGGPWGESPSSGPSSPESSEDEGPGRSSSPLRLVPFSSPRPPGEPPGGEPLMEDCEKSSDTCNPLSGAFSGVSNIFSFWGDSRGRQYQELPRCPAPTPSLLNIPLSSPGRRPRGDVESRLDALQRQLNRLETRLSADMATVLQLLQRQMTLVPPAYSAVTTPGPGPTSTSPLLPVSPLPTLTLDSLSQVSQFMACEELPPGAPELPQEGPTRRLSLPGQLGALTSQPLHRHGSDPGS
row,Structure (SMILES),"hERG current change (%, negative = inhibition) at 10uM [%]"
1,COc1ccc(CN2CCNC(=O)C2CC(=O)NCc2cccc(C)n2)c(OC)c1 (stereo not drawn),6.54
2,COC(=O)CCCSc1nccn1-c1ccccc1,-29.4
3,COCC(=O)Nc1nc2n(n1)C(c1ccccc1)CC(c1ccc(OC)cc1)N2 (stereo not drawn),-3.73
4,COc1ccccc1C(=O)CSc1ccccn1,-37.4
5,Oc1ccc(N=Nc2ccc(Br)cc2)c(O)c1,17.2
6,COc1ccc(NCc2cc3ccccc3[nH]c2=O)cc1,4.74
7,CCOC(=O)Cc1csc(NC(=O)CCS(=O)(=O)Cc2ccccc2)n1,1.64
8,Cc1ccc(S(=O)(=O)N(C)c2ccc(C(=O)N3CCOCC3)cc2)cc1,8.18
9,Cc1ccc(-c2nnc(SCC(=O)NC3CCCC3)n2C)cc1,14.9
10,COc1ccc(C(=O)N2CCN(c3ccc(NC(=O)c4cccnc4)cc3)CC2)cc1,-53.7
11,COc1ccc(-c2cc(C(=O)OCC(=O)N3CCCC3)c3ccccc3n2)cc1,-19.1
12,O=C(c1ccc(Cl)cc1)N1CCCOC1,15.2
13,COc1ccc(C2/C(=C(/O)c3ccc(F)cc3)C(=O)C(=O)N2CCCN2CCOCC2)cc1OC (stereo not drawn),19
14,Cn1cccc1/C=C1/C(=O)NC(=S)N(Cc2ccc(F)cc2)C1=O,5.15
15,Cc1ccc(S(=O)(=O)N2CCCCC2)cc1NC(=O)COC(=O)c1ccccc1F,-13.1
16,N=c1ncn(CC(O)CN2CCOCC2)c2nc(N3CCOCC3)[nH]c12 (stereo not drawn),1.24
17,Br.CC(=O)N1c2ccccc2C2(O)N=C(C)SC12 (stereo not drawn),17
18,O=C(NCc1ccco1)/C(=C/c1ccc(C(F)(F)F)cc1)c1nc2ccccc2[nH]1,2.47
19,Cc1ccccc1N(C(=O)c1snc(C(N)=O)c1N)C(C(=O)NC1CCCCC1)c1ccc(O)cc1 (stereo not drawn),24.6
20,Cc1cc(C(=O)COC(=O)[C@H](C)NC(=O)c2ccco2)c(C)n1Cc1ccco1,-23.1
21,Cc1nnc(NC(=O)CCCOc2ccccc2)s1,11.8
22,Cc1cc(C)c2c(n1)nn1c(N3CCN(c4ccccc4C)CC3)cc(C)nc21,7.78

row,Structure (SMILES),"hERG current change (%, negative = inhibition) at 10uM [%]"
1,COCCNC(=O)CN1C(=O)CSc2cc(S(=O)(=O)N3CCCCCC3)ccc21,-1.65
2,Cc1cccc(-c2ocnc2C(=O)N2CCN(C(=O)c3cccs3)CC2)c1,-5.1
3,COC(=O)[C@H](Cc1c[nH]c2ccccc12)NC(=O)NCc1ccc(OC)cc1,7.01
4,CCOC(=O)C(=NCCCN1CCOCC1)NNc1cccc(C(F)(F)F)c1,-32
5,O=c1oc2ccccc2c(Nc2ccc(Cl)cc2)c1[N+](=O)[O-],14.5
6,O=C(NC1CCCCC1)c1ccccc1NC(=S)NC(=O)C1CCC1,-7.98
7,NC(=O)c1ccccc1OCC(=O)O,-7.15
8,NC(=O)c1c(NC(=O)c2ccncc2)sc2c1CCCC2,8.71
9,CC(c1ccco1)N(C(=O)c1ccccc1NS(=O)(=O)c1cc([N+](=O)[O-])ccc1Cl)c1ccccn1 (stereo not drawn),23.3
10,O=C(CCCc1c[nH]c2ccccc12)Nc1ccc2ccccc2c1,12.6
11,S=c1[nH]nc(Cn2nnc3ccccc32)n1-c1ccccc1,20.5
12,O=C(Nc1ccc(N2CCN(C(=O)c3ccccc3)CC2)cc1)c1cccnc1,-1.77
13,COc1ccc(OC)c2c(C)cc(N3CCN(C(=O)c4ccc(Cl)cc4)CC3)nc12,2.81
14,COc1cc(=O)[nH]c(SCc2c(F)c(F)c(F)c(F)c2F)n1,0.443
15,COc1cccc(-c2ccc(SCC(=O)NC3CCCC3)nn2)c1,-7.24
16,CCc1ccc(OCC(=O)NC(C)C)cc1,5.76
17,CCOC(=O)CNC(=O)CSc1ccc(-c2nc3ccccc3[nH]2)cn1,-6.35
18,COc1ccc(Cl)cc1NC(=O)CN(C)C1CCCCC1,-34.8
19,Cc1nc2c(c(N3CCOCC3)n1)OCC(=O)N2,11.8
20,Cc1cc(S(=O)(=O)Nc2ccc(C(=O)NCC(c3ccco3)N(C)C)cc2)ccc1F (stereo not drawn),-34
21,CCN(CC(=O)NCCN1CCOCC1)S(=O)(=O)c1ccc(F)cc1,6.53
22,CCOC(=O)C(C(=O)OCC)C(C)C#CCN1CCCCC1 (stereo not drawn),-14.5

row,Structure (SMILES),"hERG current change (%, negative = inhibition) at 10uM [%]"
1,COc1cc2c(C(=O)N(C)c3ccc(F)cc3)cn(C)c(=O)c2cc1OC,12.8
2,Clc1ccccc1N1CCN(Cc2c[nH]c3ccccc23)CC1,-35.6
3,CCOC(=O)c1c(C)[nH]c(C(=O)N2CCc3cc(OC)c(OC)cc3C2)c1C,-12.3
4,O=S(=O)(c1cccc(S(=O)(=O)N2CCCC2)c1)c1cccc(S(=O)(=O)N2CCCC2)c1,-6.33
5,Cc1c(O)ccc2c(=O)c(Oc3ccccc3)coc12,24.2
6,COc1ccccc1OCCOCCOc1ccc(C)cc1[N+](=O)[O-],-42.8
7,O=C(CSc1ccc(-c2ccco2)nn1)c1cccc([N+](=O)[O-])c1,-2.7
8,Cc1nonc1C(=O)N/N=C/c1cc2c(cc1Br)OCO2,20.6
9,COc1ccccc1NC(=O)Cn1cnc2sc(C(=O)Nc3ccc(OC)c(OC)c3)c(C)c2c1=O,33.3
10,O=C(Nc1cccc2ccccc12)c1ccccc1NS(=O)(=O)c1cccc2cccnc12,-7.41
11,CCOc1cc(C)c(S(=O)(=O)NCCCn2ccnc2)cc1C,-2.53
12,Nc1c(N(CCO)C(=O)COc2ccc(Cl)cc2)c(=O)[nH]c(=O)n1Cc1ccccc1,-4.76
13,COC(=O)CCc1nc2c(C#N)c(-c3ccc(Cl)cc3)ccn2n1,-2.07
14,CC(=O)Nc1ccc(NC(=O)CN(c2cccc(C(C)=O)c2)S(C)(=O)=O)cc1,14.7
15,CCOC(=O)c1c(NC(=S)Nc2ccccc2)sc2c1CCCCC2,17.3
16,O=C(NCc1ccccc1)C(c1ccc(F)cc1)N(Cc1cccs1)C(=O)c1cnccn1 (stereo not drawn),0.717
17,Cc1cccc(N2CCN(C(=O)Cn3nc(C)n4cccc4c3=O)CC2C)c1 (stereo not drawn),1.19
18,COc1ccc(/C=N/NC(=O)c2ccc3nc[nH]c3c2)c(OC)c1OC,12.9
19,Cn1c(=O)c2c(nc(SCCN3CCOCC3)n2Cc2ccccc2)n(C)c1=O,-32.5
20,COc1ccc(-c2c3c(=O)n(C)c(=O)n(C)c3cn2C2CCCCC2)cc1,-43.9
21,Cc1nc2ncnn2c(N2CCC(C(=O)NC3CCCC3)CC2)c1Cc1ccccc1,-57.4
22,Cc1ccc(S(=O)(=O)Nc2cc(C)c(O)c(Sc3n[nH]c(C)n3)c2)cc1,2.79

row,Structure (SMILES),"hERG current change (%, negative = inhibition) at 10uM [%]"
1,O=C(O)CSCNC(=O)C12CC3CC(CC(C3)C1)C2,-10.4
2,COc1ccc(C(=O)NC(NC(=O)c2ccc(OC)cc2)c2ccccc2F)cc1,7.5
3,CC(=O)c1cccc(OCc2cc(C(=O)N(C)CCc3cnn(C)c3)no2)c1,5.21
4,O=C(NC(=S)Nc1ccc(N2CCOCC2)c(Cl)c1)C(c1ccccc1)c1ccccc1,5.35
5,Cc1c(C(=O)N2CCCC2)sc(NC(=O)c2cccc(Cl)c2)c1C#N,20.6
6,COc1ccc(COC(=O)C2=C(C)NC(=O)NC2c2cccc(OC)c2OC)cc1 (stereo not drawn),5.25
7,COc1ccc2c(COC(=O)CCS(=O)(=O)c3ccccc3)cc(=O)oc2c1,2.79
8,N=c1c(C(=O)NCC2CCCO2)cc2c(=O)n3ccccc3nc2n1Cc1ccccc1 (stereo not drawn),-75.3
9,c1ccc(CCCNCC2COc3ccccc3O2)cc1 (stereo not drawn),-15
10,CC1C(=O)N2CCCc3cc(NS(=O)(=O)c4ccc([N+](=O)[O-])cc4)cc1c32 (stereo not drawn),-16.2
11,Cc1ccccc1S(=O)(=O)NCc1ccc(N2CCN(C)CC2)cc1,-4.9
12,CCCCc1nc2cc(C(=O)N3CCC(OC)CC3)ccc2o1,-0.171
13,COc1ccc(Nc2nc(N)nc(CN3CCN(c4ccc(F)cc4)CC3)n2)cc1,-69.5
14,CCN(CC)CCNC(=O)Cc1c(C(=O)O)n(C)c2ccccc12,-2.45
15,O=C(NCC1CCCO1)C1CC(=O)N(c2cccc(Cl)c2)C1 (stereo not drawn),-8.95
16,O=C(Nc1nnc(SCC(=O)N2CCCCC2)s1)c1ccccc1F,11.9
17,O=C(NCc1ccccc1)c1nccnc1CO,21.6
18,CN(Cc1ccc(F)cc1)C(=O)CNC(=O)c1ccc2c(c1)OCO2,15.2
19,CN1CCN(C(=O)/C(=C\c2ccccc2)c2ccccc2)CC1,-59.9
20,CSc1ccc(/C=C/C(=O)c2ccc(NC(=O)Cc3ccccc3)cc2)cc1,-4.59
21,COc1ccc(C(=O)N/C(=C\c2ccc(OC)c(OC)c2)C(=O)N2CCCCC2)cc1,6.11
